Several values for one entry are separate records, joined by “and”; a condition that tells them apart may be missing. Equal values may be shown once. Some of the results follow. These are further read-outs of the screen, such as a control signal, another cell line or another target. No call is given for them. Most of these compounds were active or inconclusive in the main read-out, so they are no random draw. Potencies come from curve fits of mixed quality, noted in brackets.
target: Histamine N-methyltransferase (Homo sapiens) (UniProt P50135); assay: Confirmatory Screen for Target Class Profiling of Small Molecule Inhibitors of Methyltransferases (AID 1745852); conditions: MTase-Glo luminescence, SAH detection, recombinant enzyme; measured here: HNMT inhibition potency;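 also: inhibitor potency for blocking SAH production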
Tags tell the direction and shape of the fitted curve.

UniProt P50135, sequence (P50135 whole entry, looked up): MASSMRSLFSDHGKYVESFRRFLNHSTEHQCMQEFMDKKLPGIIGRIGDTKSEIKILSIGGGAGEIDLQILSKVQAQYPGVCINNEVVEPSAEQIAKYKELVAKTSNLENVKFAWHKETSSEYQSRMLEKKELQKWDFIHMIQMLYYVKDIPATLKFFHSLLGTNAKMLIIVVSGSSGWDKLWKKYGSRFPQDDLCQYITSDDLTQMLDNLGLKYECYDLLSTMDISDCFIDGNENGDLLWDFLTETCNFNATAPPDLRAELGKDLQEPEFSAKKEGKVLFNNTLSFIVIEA

Question: `CCCCN1C(=O)c2cc(C(=O)Nc3cc(C)cc(C)c3)nn2CC1(C)C(=O)NC1CCCC1` (stereo not given) was tested. Which IC50 did it give?
Answer: 13.6 µM [falling, partial curve]

Question: `CN(C)CCOC(C)(c1ccccc1)c1ccc(Cl)cc1` (stereo not given) was tested. Which IC50 did it give?
Answer: 19.2 µM [falling, partial curve]

Question: How did the IC50 turn out when `CC(C)c1nccn1CCCNC(=O)c1ccc(N2CCCC(CO)C2)nc1` (stereo not given) was run?
Answer: 19.2 µM [falling, partial curve]

Question: For `COC(=O)C1=C(C)NC(C)=C(C(=O)OC)C1c1cccc(NC(=O)NCCCN2CCC(c3cccc(OC)c3)CC2)c1`, which IC50 is on record?
Answer: 21.5 µM [falling, partial curve]

Question: Which IC50 does the source give for `CN(C)[C@@H]1CCc2[nH]c3ccc(NC(=O)c4ccc(F)cc4)cc3c2C1` here?
Answer: 19.2 µM [falling, partial curve]

Question: `Cc1[nH]cnc1C1CCN(c2nc3cccc4c3n2CCC4=O)CC1` was tested. Which IC50 did it give?
Answer: 42.9 µM [falling, single point]

Question: With `Cc1ccc(Cn2c(=O)c3ccccc3n3c(CCC(=O)N4CCC(N5CCCCC5)CC4)nnc23)cc1` as the compound, how does the IC50 read?
Answer: 4.82 µM [falling, full curve]

Question: Which IC50 does the source give for `CCN(CC)CCCNC(=O)CCc1nnc2n(Cc3ccc(F)cc3)c(=O)c3ccccc3n12` here?
Answer: 15.2 µM [falling, partial curve]

Question: For `Cc1cc(N(C)C)ccc1-c1nc2ccc(-c3nc4ccc(N5CCN(C)CC5)cc4[nH]3)cc2[nH]1`, which IC50 is on record?
Answer: 3.83 µM [falling, full curve]

Question: How did the IC50 turn out when `COc1cc2c(NC3CCN(C(C)C)CC3)nc(N3CCC(F)(F)CC3)nc2cc1OCCCN1CCCC1` was run?
Answer: 12.1 µM [falling, partial curve]

Question: With `CCCn1c(C)cnc1CC1CCN(C(=O)NCc2ccc(OC)cc2)C1` (stereo not given) as the compound, how does the IC50 read?
Answer: 17.1 µM [falling, partial curve]

Question: For `CCc1c(Cl)c(O)c(Cl)c(O)c1C(=O)O[C@H]1[C@H](O)[C@H](OC)[C@H](OC/C2=C\C=C\C[C@H](O)/C(C)=C\[C@H](CC)[C@@H](O[C@@H]3OC(C)(C)[C@@H](OC(=O)C(C)C)[C@H](O)[C@@H]3O)/C(C)=C/C(C)=C/C[C@@H]([C@@H](C)O)OC2=O)O[C@@H]1C`, which IC50 is on record?
Answer: 10.5 µM [falling, partial curve]

Question: How did the IC50 turn out when `Cc1nccn1CCC1CCN(c2nccc(-c3ccccn3)n2)CC1` was run?
Answer: 19.2 µM [falling, partial curve]

Question: How did the IC50 turn out when `CN1CCC(N2C[C@@H]3C[C@H]2C(=O)N(CC2CC2)c2ccccc2O3)CC1` was run?
Answer: 24.8 µM [falling, partial curve]

Question: Which IC50 does the source give for `CC1=C[C@@H](CN(CC2CC2)CC2CC2)[C@H](C(C)C)C[C@H]1Cc1nc2ccncc2[nH]1` here?
Answer: 17.5 µM [falling, partial curve]

Question: With `CN1CCN(Cc2ccc(NC(=O)Cc3ccc(Oc4cc(NC(=O)C5CC5)ncn4)cc3)cc2C(F)(F)F)CC1` as the compound, how does the IC50 read?
Answer: 19.2 µM [falling, partial curve]

Question: With `CCN(CC)CCCCNc1ncc2cc(-c3c(Cl)cccc3Cl)c(NC(=O)NC(C)(C)C)nc2n1` as the compound, how does the IC50 read?
Answer: 17.1 µM [falling, partial curve] and 19.3 µM [falling, partial curve]

Question: With `CCN(CC)CCNC(=O)CCc1nnc2n(Cc3ccc(Cl)cc3)c(=O)c3ccccc3n12` as the compound, how does the IC50 read?
Answer: 17.1 µM [falling, partial curve]

Question: `CC(C)(C[C@@](O)(Cc1cc2ccncc2[nH]1)C(F)(F)F)c1cc(F)ccc1O` was tested. Which IC50 did it give?
Answer: 19.2 µM [falling, partial curve]

Question: For `O=C(CCCc1nnc2n3nc(-c4ccccc4)nc3c3ccccc3n12)NCCCN1CCCCC1`, which IC50 is on record?
Answer: 4.82 µM [falling, full curve]

Reference: PubChem BioAssay (NCATS)
